# Results reported in the supplement of paper PMC10338343.
# ± gives the standard deviation. The list shows a part of the results, in another mix than the full data.
# Test system: MIWI (PIWIL1) piRISC loaded with L1MC piRNA (30 nt)
# Test: pre-steady-state target cleavage rate (min^-1); MIWI and MILI are mouse PIWI proteins and EfPiwi is from a freshwater sponge; tags in brackets are library labels; higher = faster piRNA-guided slicing of the target
# Conditions: guide: L1MC piRNA 5'p-UAACUAAAUACUAUGCAAGCUGUAGGUCCU; auxiliary factor: 500 nM mouse GTSF1
# How it was run: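 In this Cleave-'n-Seq assay, uncleaved targets were sequenced and normalised to depth and to weakly complementary targets. They came from a transcribed, DNA-blocked target RNA library […] mixed with 1 nM active affinity-purified piRISC carrying one synthetic guide, with or without 500 nM GTSF1 partner protein, in HEPES–potassium acetate buffer at 33 °C for 0–8 or 0–960 min. After three trials were pooled and k3 was capped at 0.0001 min^-1, the pre-steady-state cleavage rate was obtained from a burst-and-steady-state fit.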
# 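Note: 1 nM active piRISC with 0.1 nM target library at 33 °C single turnover.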
row,Sequence,pre-steady-state target cleavage rate
1,UGGACCUACAGCUUGCAUUCUAUUUAGUAA,0.0545 ± 0.012
2,AGGACCUACAGCAUGCUUAGUAUUUAGUUA,0.977 ± 0.058
3,UCCUGGUUCAGCUUGCAUAGUAAUUAGUUA,0.675 ± 0.059
4,UCGACCAAGAGCUUGCAUAGUAUUUAGUUA,0.954 ± 0.04
5,UCCACCUACACCUUGCAUAGUAUUUAGUAA,0.497 ± 0.062
6,UCCUGGUACAGCUUGCAUAGUUUUUACUUA,0.0344 ± 0.015
7,UCCUGGAUCAGCAUGCAUAGUUUUUAGUUA,0.1 ± 0.011
8,UCCUGGAUCAGCUUGAAUAGUAUUUAGUUA,1.3 ± 0.075
9,UCCUGGAACACCUUGCAUAGUAUUUACUUA,0.155 ± 0.034
10,UCCUGGAUCUCGUUGCAUAGUAUUUACAAA,0.00651 ± 0.0036
11,UGGACCUACUGCUUGCAUAGUAUAUAGUUA,0.71 ± 0.048
12,UGGACGAUCAGCUUGCAUAGUAUUUAGAAA,0.499 ± 0.048
13,UCCUCCUACAGCUUGCAUACUAUUUUGUUA,0.164 ± 0.017
14,UCCUGGUACAGCUAGCAUAGUAUUUAGAUA,0.165 ± 0.031
15,UCCUGGAUCAGCUGUGCAUAGUAUUUAGUUA,0.847 ± 0.046
16,UCCUGCUACAGCUUGCAAUGUAUUUAGUAA,0.323 ± 0.034
17,AGCACCUACAGCUUGCAUAGUAUAUAGUUA,1.12 ± 0.19
18,UCCUCCUACUGCUUGCAAAGUAUUUAGUUA,0.824 ± 0.027
19,UCGUCCUACAGCUUGGAUAGUAUUUAGUUA,1.56 ± 0.048
20,UCCUGCUAGAGCUAGCAUAGUAUUUAGUUA,0.589 ± 0.064
21,UGCACCUACAGCUUGCAUAGAAUUUAGUUA,0.563 ± 0.047
22,UCCUGCUUGAGCUUGCAUAGUAUUUUCAAA,0.0986 ± 0.019
23,UGGACGUACAGCUUGCAUAGUAUUUAGUAA,0.897 ± 0.076
24,AGGACCUACAGCUUGCUUAGUAUUUAGAUA,0.642 ± 0.067
